Experimental data from PubChem BioAssay (NCATS).
Values joined by “and” are separate entries in the source; they are usually repeats but may differ in a detail not shown here. Identical values can stand only once. Inconclusive results, whose numbers are uncertain, are shown with a selection of clear calls. For some assays here: A potency beside an inconclusive call is a rough fit, not a confirmed value. Active and inactive are the calls of the source. Calls come from the whole dose curve; as a rule, active = well fitted curve in the direction sought with a large enough effect; inconclusive = small, poorly fitted or top-dose-only effect, or another doubt; inactive = no such curve, though single readings can be large; an effect the other way counts as inactive or inconclusive.

Legend:
[1] = qHTS of pediatric cancer cell lines to identify multiple opportunities for drug repurposing: Primary screen for SK-N-MC cells (AID 1347093); details: SK-N-MC viability, CellTiter-Glo luminescence, 48 h; activity change, negative = cytotoxic: at 46 µM (top of the series)
In short: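 Metabolically active cells were quantified by ATP-dependent luminescence (CellTiter-Glo, 15 min at room temperature) following 48 h treatment. Cells had been plated at 500-1,000 per well and settled for 5 h beforehand.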

[2] = Primary qHTS for small molecule stabilizers of the endoplasmic reticulum resident proteome: Secreted ER Calcium Modulated Protein (SERCaMP) assay (AID 1508630); details: SH-SY5Y GLuc-SERCaMP (Gaussia luciferase released on ER calcium loss) secretion, thapsigargin, luminescence; series mostly up to 38.4 µM
In short: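 GLuc-SERCaMP-expressing SH-SY5Y cells, pretreated 16 h with compound, are challenged with thapsigargin to empty ER calcium stores; after 4 h, coelenterazine is added directly to the medium and luminescence is imaged.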

CASKI = assay: Primary qHTS to identify gynecologic anti-cancer compounds using libraries of approved drugs and bioactive compounds (AID 1345084); details: Gynecologic cancer cell panel viability, ATPlite luminescence, 48 h; series mostly up to 57.5 µM; note: nearly all actives have a fitted effect of over 55% in size
In short: (§1)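 Cytotoxicity screen measuring ATP content by luciferase luminescence. Each compound is applied at five concentrations for 48 h at 37 C with 5% CO2.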

OV90 = assay: as above; details: Gynecologic cancer cell panel viability, ATPlite luminescence, 48 h; series mostly up to 57.5 µM
In short: as §1

PA-1 = assay: as above; details: Gynecologic cancer cell panel viability, ATPlite luminescence, 48 h; series mostly up to 57.5 µM
In short: as §1

[3] = Quantitative High-Throughput drug screen in 47 multiple myeloma cell lines against the NCATS MIPE library collection: KMS12PE_JCRB cell viability assay (AID 1918972); note: nearly all actives have a fitted effect of over 30% in size
In short: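 Steps: seed 500 cells per well; pin-transfer MIPE 4.0 library; incubate 48 h at 37C, 5% CO2, humidified; add CellTiter-Glo, 5 min room temperature; read luminescence.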

[4] = Quantitative High-Throughput drug screen in 47 multiple myeloma cell lines against the NCATS MIPE library collection: PCM6_Riken cell viability assay (AID 1919870); note: nearly all actives have a fitted effect of over 30% in size
In short: (§2)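 Inhibition of viability over 48 h was scored by ATP content (CellTiter-Glo) in 500-cell wells. Zero and full viability were defined by media-only and DMSO-only wells.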

[5] = qHTS assay to identify inhibitors of the type 1 interferon - major histocompatibility complex class I in skeletal muscle: Counter screen cell viability and HiBit confirmation (AID 1347412); details: iHSKM muscle cells + IFN-b, HiBiT or CellTiter-Glo, 24 h; note: nearly all actives have a fitted effect of over 60% in size
In short: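 Luminescence read-out: Nano-Glo HiBiT lytic signal from C-terminally HiBiT-tagged HLA-B in CRISPR-edited human myoblasts, plus CellTiter Glo ATP as viability counter screen. IFN-beta 4.0 ng/ml; 24 hrs treatment at 37 C, 5% CO2.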

[6] = qHTS of pediatric cancer cell lines to identify multiple opportunities for drug repurposing: Primary screen for RD cells (AID 1347104); note: nearly all actives have a fitted effect of over 55% in size
In short: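 Cells seeded at 500-1,000 cells/well in growth media, rested 5 hours at 37 degrees C, 5% CO2, then dosed; MIPE compounds at 11-point (from 0.78 nM) and NPC at 8-point (from 0.59 nM) final concentrations. Viability by CellTiter-Glo luminescence after 48 hours.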

[7] = tested on: Zika virus NS2B-NS3 protease; assay: Primary screen GU AMC qHTS for Zika virus inhibitors (AID 1347154); note: nearly all actives have a fitted effect of over 70% in size
In short: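 Fluorogenic AMC-substrate cleavage by noncovalent NS2B-NS3 protease complex (25 nM, pH 8.0 Tris buffer with Tween 20) followed for 15 minutes at room temperature (~20% conversion). Percent inhibition from ex340/em450 signal change, fitted by 4-parameter Hill equation.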

[8] = Quantitative High-Throughput drug screen in 47 multiple myeloma cell lines against the NCATS MIPE library collection: EJM_DSMZ cell viability assay (AID 1918926; note: nearly all actives have a fitted effect of over 30% in size)
In short: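 CellTiter-Glo ATP luminescence gave viability after 48 h compound treatment at 37C of 500 multiple myeloma cells per well. Normalisation used DMSO-only wells as 100% and media-only wells as 0% viability; primary qHTS of approved and investigational drugs.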

[9] = Quantitative High-Throughput drug screen in 47 multiple myeloma cell lines against the NCATS MIPE library collection: ARP1_JJKsccF8 cell viability assay (AID 1918928; note: nearly all actives have a fitted effect of over 40% in size); details: ARP1 myeloma cells viability, CellTiter-Glo ATP, 48 h; viability: at 45.8 µM (top of the series)
In short: (§3)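 Myeloma cells, 500 per well, were exposed to MIPE 4.0 drugs by pin transfer for 48 h at 37 °C, 5% CO2. Viability was read as ATP luminescence with CellTiter-Glo, normalised to DMSO-only (100%) and medium-only (0%) wells.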

[10] = Quantitative High-Throughput drug screen in 47 multiple myeloma cell lines against the NCATS MIPE library collection: KMM1_JCRB cell viability assay (AID 1918960); note: nearly all actives have a fitted effect of over 30% in size
In short: as §3

[11] = Quantitative High-Throughput drug screen in 47 multiple myeloma cell lines against the NCATS MIPE library collection: U266_ATCC cell viability assay (AID 1919864); note: nearly all actives have a fitted effect of over 35% in size
In short: as §2

[12] = Quantitative High-Throughput drug screen in 47 multiple myeloma cell lines against the NCATS MIPE library collection: KMS11_JCRBsus cell viability assay (AID 1919873); note: nearly all actives have a fitted effect of over 50% in size
In short: as §2

[13] = qHTS Assay for Identifying Gametocytocidal Compounds (AID 743244); details: P. falciparum 3D7 stage III-V gametocytes, alamarBlue, 72 h; max response: active compounds read low
In short: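 Stage III–V gametocytes of P. falciparum 3D7 were seeded at 20,000 cells/well onto pre-dispensed compounds. After 72 h, 37 °C, 5% CO2, alamarBlue was added for another 24 h.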
Potency is the fitted concentration of half-maximal effect; tags give direction and shape of the fitted curve.

In the case of `Nc1ccn([C@@H]2O[C@H](CO)[C@@H](O)C2(F)F)c(=O)n1`, the Potency [1] is reported as active: 0.106 µM, the Potency [2] is reported as “inactive” and the Potency (CASKI) is reported as inconclusive: 1.12 µM [cytotoxic, full curve]. The Potency (OV90) was inconclusive: 2 µM [cytotoxic, partial curve, poor fit] and inconclusive: 447 nM [cytotoxic, full curve] and the Potency (PA-1) was inconclusive: 398 nM [cytotoxic, full curve, poor fit] and inconclusive: 355 nM [cytotoxic, full curve, poor fit].
With `Nc1cc(C(F)(F)F)c(-c2cc(N3CCOCC3)nc(N3CCOCC3)n2)cn1` the Potency [3] was active: 0.418 µM, the Potency [4] was active: 1.48 µM and the Potency (CASKI) was active: 3.55 µM. For the same molecule, the Potency (OV90) was active: 10 µM, the Potency ([5]; HiBiT) was inconclusive: 11.1 µM [inhibitor, partial curve] and the Potency ([5]; Viability) was inconclusive: 5.57 µM [cytotoxic, full curve].
In the case of `CC(NC(=O)Cc1cc(F)cc(F)c1)C(=O)NC(C(=O)OC(C)(C)C)c1ccccc1` (stereo not given), the Potency [2] is reported as inconclusive: 28.2 µM [inhibitor, single point].
With `COC(=O)[C@]12CCC(C)(C)C[C@@H]1[C@@H]1C(=O)C=C3[C@@]4(C)C=C(C#N)C(=O)C(C)(C)[C@@H]4CC[C@@]3(C)[C@]1(C)CC2` the Potency [6] was active: 0.526 µM, the Potency [7] was inconclusive: 13.6 µM [inhibitor, partial curve] and the Potency [8] was active: 0.418 µM. For the same molecule, the Potency [9] was active: 0.469 µM, the Potency [10] was active: 0.662 µM and the Potency [4] was active: 0.332 µM.
With `COc1cc(O)c2c(c1)C1OC1C[C@H](O)[C@H](O)C(=O)C=CC[C@H](C)OC2=O` (stereo not given in full) the Potency [7] was inconclusive: 10.8 µM [inhibitor, partial curve], the Potency [2] was “inactive” and the Potency [8] was active: 7.43 µM. For the same molecule, the Potency [9] was active: 4.69 µM, the Potency [11] was active: 4.69 µM and the Potency [12] was active: 2.35 µM. The Potency ([5]; Viability) was inconclusive: 3.94 µM [cytotoxic, partial curve].
In the case of `C=C(C)C(=O)O[C@H]1C[C@@](C)(O)C2(O)CCC(C)(/C=C3/OC(=O)C(COC)=C31)O2` (stereo not given in full), the Potency (CASKI) is reported as inconclusive: 12.6 µM [cytotoxic, single point], the Potency (OV90) is reported as inconclusive: 12.6 µM [cytotoxic, single point] and the Potency (PA-1) is reported as active: 10 µM.
With `CO[C@@H]1[C@@H](OC)[C@H](C)[C@@](O)(CC(=O)O)O[C@H]1[C@H](C)[C@H]1O[C@@]2(CC[C@@](C)([C@H]3CC[C@@](C)([C@@H]4O[C@@H]([C@H]5O[C@](C)(O)[C@H](C)C[C@@H]5C)C[C@@H]4OC4C[C@H](OC)[C@@H](OC)[C@H](C)O4)O3)O2)C[C@H](O)[C@H]1C` (stereo not given in full) the Potency [13] was active: 0.0935 µM, the Potency (CASKI) was inconclusive: 25.1 µM [cytotoxic, single point] and the Potency (OV90) was active: 1.78 µM. The Potency (PA-1) was inconclusive: 3.16 µM [cytotoxic, partial curve, poor fit].
For `CC(Oc1cc(-n2cnc3ccc(CN4CCN(C)CC4)cc32)sc1C(N)=O)c1ccccc1C(F)(F)F` (stereo not given), the Potency (CASKI) was inconclusive: 5.01 µM [cytotoxic, partial curve, poor fit], the Potency (OV90) was “inactive” and the Potency (PA-1) was active: 11.2 µM.
